Assay results taken from PMC4336329 (PLoS ONE, 2015).
About 14,000 (4.5%) of roughly 310,000 compounds showed an effect of 50% or more. Effects have a minus sign here. This is one part of the list.

What follows are compounds tested against human ether-à-go-go-related gene (hERG) potassium channel (human, UniProt Q12809) (assay: primary screen, population patch clamp on CHO cells stably expressing hERG).
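Further: peak tail current of the secondary pulse compared with the same well before compound.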

human ether-à-go-go-related gene (hERG) potassium channel, sequence (Q12809 whole entry, looked up): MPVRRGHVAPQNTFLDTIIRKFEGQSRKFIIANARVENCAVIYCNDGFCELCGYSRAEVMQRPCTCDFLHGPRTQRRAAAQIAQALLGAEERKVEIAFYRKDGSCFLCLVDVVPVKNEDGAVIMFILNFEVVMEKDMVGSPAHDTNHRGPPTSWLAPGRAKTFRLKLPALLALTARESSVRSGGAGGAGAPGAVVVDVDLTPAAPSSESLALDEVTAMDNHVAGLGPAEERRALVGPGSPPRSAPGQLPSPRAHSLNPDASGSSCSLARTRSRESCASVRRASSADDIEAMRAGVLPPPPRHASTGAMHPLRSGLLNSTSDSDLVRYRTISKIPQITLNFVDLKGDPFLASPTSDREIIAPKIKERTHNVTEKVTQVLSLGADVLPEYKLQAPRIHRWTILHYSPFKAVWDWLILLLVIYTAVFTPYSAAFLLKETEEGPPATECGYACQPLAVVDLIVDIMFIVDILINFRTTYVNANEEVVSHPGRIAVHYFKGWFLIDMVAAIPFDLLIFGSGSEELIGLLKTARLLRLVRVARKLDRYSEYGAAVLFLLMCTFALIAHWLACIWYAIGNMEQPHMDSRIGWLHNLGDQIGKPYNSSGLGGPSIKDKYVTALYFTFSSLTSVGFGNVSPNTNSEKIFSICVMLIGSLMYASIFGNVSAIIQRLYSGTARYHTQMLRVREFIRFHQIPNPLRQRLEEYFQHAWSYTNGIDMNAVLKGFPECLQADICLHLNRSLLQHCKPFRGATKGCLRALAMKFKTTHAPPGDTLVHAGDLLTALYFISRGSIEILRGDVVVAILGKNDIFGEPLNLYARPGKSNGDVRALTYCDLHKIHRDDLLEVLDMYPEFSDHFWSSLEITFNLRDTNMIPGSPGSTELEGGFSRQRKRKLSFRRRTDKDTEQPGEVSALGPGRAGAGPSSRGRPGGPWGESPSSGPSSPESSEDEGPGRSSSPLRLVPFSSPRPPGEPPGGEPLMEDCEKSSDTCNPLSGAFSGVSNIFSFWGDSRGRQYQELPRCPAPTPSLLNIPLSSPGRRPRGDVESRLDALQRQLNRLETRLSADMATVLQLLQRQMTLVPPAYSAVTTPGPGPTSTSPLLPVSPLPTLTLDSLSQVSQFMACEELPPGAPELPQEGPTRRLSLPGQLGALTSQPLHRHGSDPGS

Structure (SMILES)	hERG current change (%, negative = inhibition) at 10uM [%]
COc1ccc(C(=O)NNC(=S)NC2CCCCC2)cc1OC	13.8
CN1CCC(N(C)C(=S)Nc2ccc(SC(F)F)cc2)CC1	-56.6
CCC(=O)Nc1cccc(-c2ccc(N3CCC(C)CC3)nn2)c1	12.8
CC1CN(C(=O)c2nn(C)cc2[N+](=O)[O-])CC(C)O1 (stereo not shown)	6.61
COCCCn1c(C)nnc1SCC(=O)Nc1cccc(C)c1	11.2
CCCCCCn1c(=O)c(-c2ccccc2)c(O)c2ccccc21	-30.8
C=CCN(c1ccccc1Cl)S(=O)(=O)c1cccc(C(=O)OCC(=O)N(C)C2CCS(=O)(=O)C2)c1 (stereo not shown)	-40.3
CC(NC(=O)COC(=O)C1(C)CC1(Cl)Cl)c1ccccc1 (stereo not shown)	-1.66
Cc1ccc(-n2nc3c(=O)n(CCCC(=O)NCCc4ccccc4C)nc(C)c3c2C)cc1	-8.75
Cc1ccccc1C(=O)N1CCN(c2ccc(NC(=O)c3ccco3)cc2Cl)CC1	-43.2
C=CCn1c(=O)[nH]c2cc(C(=O)N3CC=C(c4ccccc4)CC3)ccc2c1=O	2.22
Cc1noc(C)c1CCC(=O)N1CCCC(CCC(=O)NCc2ccc(F)c(F)c2)C1 (stereo not shown)	-32
Oc1ccc(/C=N/N=C/c2ccc(O)c(O)c2)cc1O	12.5
COc1cc(NC(=O)CCCl)cc(-n2cnnn2)c1	5.76
CCOC(=O)C1=NN(c2ccc(Cl)cc2)/C(=C/C2=NCCc3cc(OC)c(OC)cc32)S1	8.07
CCCCn1c(=O)c(CCC(=O)OCC(=O)NC(C)c2ccccc2)nc2ccccc21 (stereo not shown)	-2.2
O=C(c1ccco1)N1CCN(C(=O)C2CC(c3ccc(Cl)cc3)=NO2)CC1 (stereo not shown)	-76.2
Cc1ccc(S(=O)(=O)N2[C@@H](c3ccccc3F)C(C(=O)O)=CC[C@H]2c2cccc(Cl)c2)cc1	21.9
Cc1nc(-n2nnc3ccccc32)c2c3c(sc2n1)CCCC3	-50.1
C/C(=N\Nc1ccc([N+](=O)[O-])cc1)c1ccco1	4.13
COCCCNc1nc(-c2ccc(Cl)cc2)nc2ccccc12	-1.64
COc1ccc(C2Nc3ccccc3C(=O)N2Cc2ccccc2)cc1CN1CCOCC1 (stereo not shown)	-63.5
C/C(=N\NC(=O)C1CC1)c1ccccc1Br	12.9
CCCn1c(=O)c(C(=O)Nc2cccc(C)c2)c(O)c2ccccc21	10.2
COc1ccc(NC(=O)N2CCN(C(=O)Nc3ccc(OC)cc3)CC2)cc1	6.18
Cn1c(SCc2ccccc2Cl)nc2ccccc21	1.78
Cc1ccc(-c2ccc(/C=N/N3C(=O)C4C5C=CC(C6CC56)C4C3=O)o2)c([N+](=O)[O-])c1 (stereo not shown)	-12.5
O=C(O)c1ccn(CSc2cc(Cl)ccc2Cl)n1	5.46

Structure (SMILES)	hERG current change (%, negative = inhibition) at 10uM [%]
C=CCN(C(=O)C1CC(=O)N(C2CCCC2)C1)c1nc(-c2ccc(S(C)(=O)=O)cc2)cs1 (stereo not shown)	-47.1
CCc1cc(-c2nnc(SCC(=O)NC3CC3)n2C)cs1	3.47
CC(C)=CCC/C(C)=C/CC/C(C)=C/CC/C(C)=C/CC1=C(C)C(=O)c2ccccc2C1=O	18.6
CCCCOC(=O)c1ccc(NC(=O)c2cnc3n(c2=O)CCS3)cc1	6.32
COc1ccc(C(=O)NCCNC(=O)c2cnccn2)cc1OC	14.4
CC[C@H](C)C(N)c1cn([C@@H](CC(N)=O)C(=O)N2CCNCC2)nn1 (stereo partly shown)	-10.5
O=C(O)CSCC(=O)Nc1ccccn1	7.36
Cc1cccc(C(=O)OCC(=O)N2CCCC2=O)c1[N+](=O)[O-]	-12.7
O=C(O)c1cccc(Nc2nc(Nc3ccccc3)nc(N3CCCC3)n2)c1	28
Cc1ccc2c(c1)c1c(n2CC(O)CN2CCCCCC2)CCCC1.Cl (stereo not shown)	-65.6
CCOc1ccc(Br)cc1S(=O)(=O)Nc1cccc(S(=O)(=O)NC2=NCCC2)c1	-4.56
Fc1ccccc1NC(=S)N1CCN(c2ccccn2)CC1	8.82
CC(C)CC(=O)Nc1ccc(C(=O)CN2C(=O)NC3(CCOc4ccccc43)C2=O)cc1 (stereo not shown)	-9.85
N#C/C(C(=O)Oc1ccccc1)=C1\C=Cc2ccccc2N1	6.21
O=C(N1CCCCCC1)N1CCN(S(=O)(=O)c2ccccc2)CC1	-11.9
CCCCCn1c(CCC(=O)Oc2ccccc2OC)nc2c1c(=O)[nH]c(=O)n2CCCC	-8.34
COC(=O)c1cc(C(=O)OC)n(Cc2ccc(F)cc2)c1C	-5.66
CCCCSc1nc(C(=O)O)cc(=O)[nH]1	-7.8
Cc1ccc2nc(SCC(=O)N3CCN(C(=O)c4ccco4)CC3)[nH]c2c1	-35.3
COc1ccc(OC)c(C(c2nnnn2Cc2ccccc2)N2CCN(C)CC2)c1.Cl (stereo not shown)	3.17
CCn1cc2nc(SCC(=O)Nc3ccc(OC)cc3OC)n(Cc3ccc(OC)cc3)c(=O)c2n1	1.42
Cc1ccc2[nH]c(=O)c(CN(Cc3nnnn3C3CCCC3)C3CCCCC3)cc2c1	-8.29
C=CCOc1c2ccc(C(=O)NCc3ccccc3OC)cc2nn1C	5.24
CCOc1ccc(NC(=O)CCCc2cc(-c3ccc(OCC)cc3)on2)cc1	7.77
CC(=O)c1cccc(NC(=O)C(OC(=O)c2cccs2)c2ccccc2)c1 (stereo not shown)	-4.38
CC1CCc2c(sc(NC(=O)c3ccc(Cn4cc([N+](=O)[O-])cn4)o3)c2C#N)C1 (stereo not shown)	2.86
COc1cccc(C2NC(=O)NC(C)=C2C(=O)OCCSC)c1OC (stereo not shown)	11.5
